This passage reports Kd results from patent US20210206829A1 (published 2021).

This assay has as its target human CD47 (human, UniProt Q08722). As to the kind of experiment: flow cytometry on Jurkat cells. On the technique in general: A flow cytometer gives signals particle by particle.

B1: TTI-621 (Fc fusion)
chain: not shown
On to B1, for which the Kd (usually a measure of binding affinity in units of concentration) turned out to be 2.3 nM.
